According to patent publication US20080138329A1, “Inhibitors of Dna Methylation in Tumor Cells” (DKFZ Deutsches Krebsforschungszentrum, priority 2004, published 2008):

Key:
[1] = tested on: genomic DNA of HCT116 cells; experiment: Genomic cytosine methylation level of HCT116 cells by capillary electrophoresis; format: cell-based, human; details: 10 μM
Protocol: (§1) Analysis of genomic DNA methylation. DNA was isolated from cells using the DNeasy kit from Qiagen. Cytosine methylation levels were determined by capillary electrophoresis, as described previously (Stach, D., Schmitz, O. J., Stilgenbauer, S., et al. 2003. Nucleic Acids Res. 31, e2).

human hMLH1 gene = experiment: Methylation-specific PCR of hMLH1 gene in HCT116 cells; format: cell-based; details: 10 micromolar
Excerpt: RG108 causes demethylation in HCT116 cells. We have used methylation-specific PCR (Herman, J. G., Graff, J. R., Myohanen, S., Nelkin, B. D., Baylin, S. B. Methylation-specific PCR: a novel PCR assay for methylation status of CpG islands. Proc. Natl. Acad. Sci. USA. 1996, 93:9821-9826) to determine the effect of RG108 on the methylation of the human hMLH1 gene in HCT116 cells.

HCT116 cells [2] = experiment: Growth and viability of HCT116 cells (trypan blue counting); details: 10 μM, 15 days
NALM-6 cells = experiment: Growth and viability of NALM-6 cells (trypan blue counting); details: 10 μM, 15 days
[3] = tested on: genomic DNA of NALM-6 cells; experiment: Genomic cytosine methylation level of NALM-6 cells by capillary electrophoresis; format: cell-based, human; details: 10 μM
Protocol: as §1

HCT116 cells [4] = experiment: Proliferation rate of HCT116 cells, counted after 5 days; format: cell-based, human; details: increasing concentrations
Protocol: (§2) (a) Effect of increasing concentrations of RG108 on the proliferation rate of HCT116 cells. Equal amounts of cells were incubated with different concentrations of RG108 and counted after 5 days. Black bars represent results from 3 independent experiments, standard deviations are indicated by error bars. (b) Reactivation of the p16^INK4a gene (p16) in HCT116 cells treated with RG108. […] Untreated HCT116 cells expressed only the mutant allele of p16 (lower panel). (c) Effect of RG108 on the methylation and expression of various epigenetically silenced genes in HCT116 cells. Methylation-specific PCR (MSP) was used to analyze the methylation status of p16^INK4a, SFRP1 and TIMP-3 in DNA from cells incubated with 10 μM RG108. RT-PCT (RTP) was used to determine the expression level in cells incubated with 0, 10, 30 or 100 μM RG108, as indicated. β-Amyloid (βAm) was used as a loading control. (d) Effect of RG108 on the methylation status of centromeric satellite sequences. HCT116 cells were incubated with variable concentrations of RG108 (RG) or 5-azacytidine (aza), as indicated. The methylation status was analyzed by methylation-sensitive Southern analysis. The size of marker fragments (in kbp) is indicated on the sides of the panels, respectively.

[5] = tested on: p16INK4a, SFRP1 and TIMP-3; experiment: Methylation (MSP) and expression (RT-PCR) of epigenetically silenced genes in HCT116 cells; format: cell-based, human; details: MSP at 10 μM, RT-PCR at 0, 10, 30, 100 μM
Protocol: as §2
Total RNA was isolated from cells using Trizol reagent (Invitrogen). cDNA was synthesized by using the cDNA synthesis kit from Invitrogen. […]

[6] = tested on: centromeric satellite sequences; experiment: Methylation-sensitive Southern analysis of centromeric satellite sequences in HCT116 cells; format: cell-based, human; details: variable concentrations
Protocol: as §2, with “HCT116 cells were incubated with variable concentrations of RG108 (RG) or 5-azacytidine (aza), as indicated.” left out, “The size of marker fragments (in kbp) is indicated on the sides of the panels, respectively.” left out
The methylation status of satellite sequences was analyzed by methylation-sensitive Southern blots, as described previously (Rhee, I. et al. DNMT1 and DNMT3b cooperate to silence genes in human cancer cells. Nature, vol. 416, pp. 552-556 (2002)).

TIMP-3 CpG island = experiment: Bisulfite sequencing of the TIMP-3 CpG island in HCT116 cells; format: cell-based, human; details: 30 μM, 5 days, P<0.05 (t-test)
Protocol: Bisulfite sequencing was performed under standard conditions (Frommer, M., et al., 1992. A genomic sequencing protocol that yields a positive display of 5-methylcytosine residues in individual DNA strands. Proc. Natl. Acad. Sci. USA, 89: 1827-1831) with genomic DNA from HCT116 cells treated with 30 μM RG108 or no inhibitor for 5 days. The primers used and the PCR conditions were as follows: forward [NT], reverse [NT], 95° C. 3 min., 38 […]. 5 min. PCR products were purified using the QIAquick Gel Extraction Kit (Qiagen), sub cloned into the pCR 4-Topo plasmid vector (Invitrogen) and subjected to automated sequencing.

M.SssI methylase = target: T1, M.SssI methylase (Spiroplasma monobiae, UniProt P15840); experiment: In vitro DNA methylation assay with purified recombinant CpG methylase M.SssI; format: biochemical; details: inhibitors at 10, 100, 200, 500 μM; BstUI restriction fragments
T1 construct: purchased New England Biolabs
Protocol: The effect of RG108 was analyzed in an in vitro DNA methylation assay. For this assay, the purified recombinant CpG methylase M.SssI was used. […] A 798 bp PCR fragment from the promoter region of the human p16/CDKN2A gene was used as a substrate and DNA methylation was visualized by digestion with the methylation-sensitive restriction enzyme BstUI. Thus, inhibition of
DNA methyltransferases can be detected by the appearance of unprotected, smaller restriction fragments (FIG. 2a).
The substrate DNA for the in vitro methylation assay was generated by PCR amplification of a 798 bp fragment from the promoter region of the huma p16/CDKN2 gene. The methylation reaction contained 350-400 ng substrate DNA (13-15 nM DNA, corresponding to 1.6-1.8 μM CpGs) in reaction buffer (50 mM NaCl, 10 mM Tris-HCl, 10 mM MgCl2, 1 mM dithiothreitol, pH 7.9), 80 μM S-adenosylmethionine, and 4 U of M.SssI methylase (0.5 μM, New England Biolabs) in a final volume of 50 μl. Inhibitors were added in concentrations of 10, 100, 200, and 500 μM, respectively. Reactions were performed at 37° C. for 2 hours. After completion, the reaction was inactivated at 65° C. for 15 min and the DNA was purified using the QIAquick PCR Purification Kit (Qiagen). 250 ng of purified DNA was digested for 3 h at 60° C. with 30 units of BstUI (New England Biolabs) and analyzed on 2% agarose gels.

T1 sequence (P15840 whole entry, the tested form may be a part): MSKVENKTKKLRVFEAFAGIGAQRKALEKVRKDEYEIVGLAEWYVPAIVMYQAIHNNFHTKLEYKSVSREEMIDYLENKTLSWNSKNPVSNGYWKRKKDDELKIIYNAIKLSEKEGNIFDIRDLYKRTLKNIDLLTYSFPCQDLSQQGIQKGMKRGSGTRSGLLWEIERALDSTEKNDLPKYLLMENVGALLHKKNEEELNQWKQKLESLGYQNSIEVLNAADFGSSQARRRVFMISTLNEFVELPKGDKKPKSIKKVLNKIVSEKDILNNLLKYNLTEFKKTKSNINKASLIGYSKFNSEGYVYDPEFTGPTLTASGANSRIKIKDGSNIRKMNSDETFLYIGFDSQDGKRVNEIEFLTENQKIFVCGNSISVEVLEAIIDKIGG

| SMILES | demethylation of genomic DNA in HCT116 cells (in words) [1] | demethylation of the hMLH1 gene (human hMLH1 gene) | effect on growth and viability of HCT116 cells (HCT116 cells [2]) | effect on growth and viability of NALM-6 cells (NALM-6 cells) | demethylation of genomic DNA in HCT116 cells [1] [%] | reduction of DNA methylation in NALM-6 cells ([3]; after 5 days) [%] | reduction of DNA methylation in NALM-6 cells ([3]; after 15 days) [%] | proliferation of HCT116 cells (HCT116 cells [4]) | demethylation and reactivation of euchromatic genes (tumor suppressor genes) [5] | demethylation of centromeric satellite sequences [6] | demethylation of CpG dinucleotides of the TIMP-3 CpG island (TIMP-3 CpG island) | inhibition of DNA methyltransferase activity in vitro, concentration series (M.SssI methylase) | demethylation of genomic DNA in NALM-6 cells (in words) [3] |
| --- | --- | --- | --- | --- | --- | --- | --- | --- | --- | --- | --- | --- | --- |
| Nc1ncn([C@@H]2O[C@H](CO)[C@@H](O)[C@H]2O)c(=O)n1 [5-azacytidine, reference compound] | similar | no demethylation | intermediate effect | highly toxic | – | – | – | – | – | – | – | – | – |
| O=C(O)C(Cc1c[nH]c2ccccc12)N1C(=O)c2ccccc2C1=O (stereo not drawn) [RG108] | – | complete demethylation | – | – | 30 | 15 | 60 | reduces the proliferation | substantially demethylates and reactivates | not the centromeric satellite sequences | significant demethylation | – | – |
| O=C1c2ccccc2C(=O)N1CCc1c[nH]c2ccccc12 [ΔC-RG108, reference compound] | failed to demethylate | – | – | – | – | – | – | – | – | – | – | failed to inhibit | failed to demethylate |
